Results as given in ChEMBL document CHEMBL4888484, “Replenishing the malaria drug discovery pipeline: Screening and hit evaluation of the MMV Hit Generation Library 1 (HGL1) against asexual blood stage Plasmodium falciparum ,using a nano luciferase reporter read-out” (2022).
Among all 150,000 compounds or so, about 540 (0.36%) showed an effect of 50% or more. Some of the results follow.

The molecules below were run on Plasmodium falciparum (assay: Primary screen in NF54 nanoGlo assay, in single point, at 2uM, 72h; a lower Z score goes with more inhibition). Conditions: timepoint 72 hour.
Type: functional, Erythrocyte
With `CCOc1ccc(S(=O)(=O)NC2(c3noc(C4CC4)n3)CCCC2)cc1` the “% Inhibition” value was -5% and the Z score was 0.47.
In the case of `CCCN1CCCN(C(=O)c2cccc(-n3cnnn3)c2)CC1`, the “% Inhibition” value is reported as -1% and the Z score is reported as 0.14.
`CC(C)(CNC(=O)COCc1ccccc1Cl)C(N)=O` was tested, and the “% Inhibition” value was -2% and the Z score was 0.32.
For `CN(C)S(=O)(=O)c1cnn(Cc2ccnn2C)c1`, the “% Inhibition” value was -1% and the Z score was 0.1.
In the case of `Cc1oc(-c2cc3c(cc2Cl)OCO3)nc1CN1C[C@@H](C)O[C@@H](C)C1`, the “% Inhibition” value is reported as -18% and the Z score is reported as 1.94.
For `Cc1cc(C)nc(NC(=O)c2cccc(S(=O)(=O)N3CCCCC3)c2)n1`, the “% Inhibition” value was -28% and the Z score was 3.6.
In the case of `O[C@@H]1C[C@H]2CN(Cc3cccnc3)CC3(CN(Cc4ccc(F)cc4)C3)N2C1`, the “% Inhibition” value is reported as 0% and the Z score is reported as 0.04.
With `CC(C)Cc1cc(C(=O)N(Cc2ccc3c(c2)OCO3)C2CC2)on1` the “% Inhibition” value was 5% and the Z score was -0.53.
`O=c1[nH]nc(-c2ccc(O)cc2)n1-c1ccc2c(c1)OCO2` was tested, and the “% Inhibition” value was -1% and the Z score was 0.14.
With `O=C(NC1CCCCC1)N1CC[C@H]2C(=O)N(Cc3cccc(F)c3)CC(=O)N2CC1` the “% Inhibition” value was -6% and the Z score was 0.75.
With `Cc1cccc(C)c1-n1nnnc1C(C)(C)N1CCN(C(=O)c2ccco2)CC1` the “% Inhibition” value was -2% and the Z score was 0.25.
For `CC(=O)Nc1ccc(-c2ccc(=O)n3c2[C@@H]2C[C@@H](CN(Cc4cccc(C#N)c4)C2)C3)cc1`, the “% Inhibition” value was 28% and the Z score was -3.18.
`CN1CCOC(CS(=O)(=O)NC2CCCc3ccccc32)C1` (centres undefined) was tested, and the “% Inhibition” value was -9% and the Z score was 1.19.
In the case of `c1cc([C@@H]2NCCc3[nH]cnc32)n(-c2ccncc2)c1`, the “% Inhibition” value is reported as 5% and the Z score is reported as -1.03.
For `CS(=O)(=O)N1CC(=O)N(c2cccc(-c3ccccc3)c2)C[C@@H]1Cc1ccccc1`, the “% Inhibition” value was -10% and the Z score was 1.19.
With `CCC[C@H]1CN(Cc2cnc(N(C)C)s2)C[C@@H]1C(=O)O` the “% Inhibition” value was -5% and the Z score was 0.99.
For `COc1ccc(CCNC(=O)N2CCCC(C3(C)NC(=O)NC3=O)C2)cc1F` (centres undefined), the “% Inhibition” value was -4% and the Z score was 0.73.
`O=C(NCc1cccnc1Oc1ccc(F)c(F)c1)c1n[nH]cc1Cl` was tested, and the “% Inhibition” value was -1% and the Z score was 0.22.
For `Cc1cc(=O)c(C(=O)N2CCCCCC2)c(Cc2cccc(F)c2)n1CCCN1CCOCC1`, the “% Inhibition” value was -4% and the Z score was 0.47.
In the case of `CCN1C(=O)CC(CC(=O)N(CC2CCC2)CC2CCCO2)(c2cccc(C(F)(F)F)c2)C1=O` (centres undefined), the “% Inhibition” value is reported as 6% and the Z score is reported as -1.17.
In the case of `CC[C@@H](c1ccccn1)N(C)Cc1nnc(C)s1`, the “% Inhibition” value is reported as -5% and the Z score is reported as 0.82.
With `COC(=O)[C@@H](OC(=O)c1ccnc(C)n1)C(C)C` the “% Inhibition” value was 5% and the Z score was -0.78.
With `CCC(O)C1CCCCN1Cc1cnn(C(C)(C)C)c1` (centres undefined) the “% Inhibition” value was 0% and the Z score was 0.01.
In the case of `O=C(CNC(=O)c1cccc(Cl)c1)NCc1cscn1`, the “% Inhibition” value is reported as 2% and the Z score is reported as -0.27.
`Cc1n[nH]c(C)c1CC(=O)N[C@H]1CCCNC1=O` was tested, and the “% Inhibition” value was 6% and the Z score was -0.89.
For `O=C(Nc1cc(C(F)(F)F)cc(C2CC2)n1)N[C@H]1CCN(C2CCC2)C1=O`, the “% Inhibition” value was -4% and the Z score was 0.5.
`CC(C)c1ocnc1Cn1ccnc1-c1cncc(Br)c1` was tested, and the “% Inhibition” value was -9% and the Z score was 0.96.
In the case of `C[C@@H](CN1CCOCC1)C(=O)N1CCC(Oc2ccc(Cl)cc2)CC1`, the “% Inhibition” value is reported as -13% and the Z score is reported as 1.29.
With `CCOC(=O)CNc1nc(NCC(=O)OCC)nc(OC)n1` the “% Inhibition” value was -8% and the Z score was 0.92.
In the case of `NC(=O)CN1CCOc2cc(Br)c(Cl)cc21`, the “% Inhibition” value is reported as 28% and the Z score is reported as -3.72.
With `Cc1nc(NC(=O)[C@H](C)N(C)Cc2nccn2C(F)F)sc1C` the “% Inhibition” value was -6% and the Z score was 0.79.
`CC(c1ccc(Cl)cc1Cl)N(C)C(=O)C1CC12CCNCC2` (centres undefined) was tested, and the “% Inhibition” value was -21% and the Z score was 3.92.
With `COc1ncccc1C(=O)NC1CC2CCC(C1)N2S(C)(=O)=O` (centres undefined) the “% Inhibition” value was 8% and the Z score was -1.51.
`O=C(Cc1ccc(Cl)cc1)N1CCC[C@@](F)(C(=O)NCc2ccncc2)C1` was tested, and the “% Inhibition” value was -11% and the Z score was 0.93.
With `Cc1cccnc1NC(=O)C1=COCCO1` the “% Inhibition” value was -10% and the Z score was 1.23.
For `CCCC(=O)N[C@H]1CCCN(c2nc(C)ns2)C1`, the “% Inhibition” value was 1% and the Z score was -0.19.
`O=C1Nc2cc(-c3cccc4cc[nH]c34)ccc2C12CCOCC2` was tested, and the “% Inhibition” value was 1% and the Z score was -0.1.
For `CCn1ccnc1CN1CCc2[nH]cnc2[C@@H]1c1cccn1-c1ncccn1`, the “% Inhibition” value was 2% and the Z score was -0.18.
With `O[C@@H](CNc1ccc2ccc(F)cc2n1)C1CCOCC1` the “% Inhibition” value was 14% and the Z score was -1.85.
In the case of `O=C(C1CCC1)N(Cc1ccc(F)cc1)C[C@H]1CC(c2ccccc2)=NO1`, the “% Inhibition” value is reported as 5% and the Z score is reported as -0.41.
`CC1(CNC(=O)C2CC=CC2)CCN(C(=O)OC(C)(C)C)CC1` was tested, and the “% Inhibition” value was -9% and the Z score was 1.13.
`CC1(C)CCN(C(=O)C2=CCCCO2)C1` was tested, and the “% Inhibition” value was -18% and the Z score was 1.9.
With `CCNc1cc(Br)ccc1N` the “% Inhibition” value was 0% and the Z score was -0.07.
With `Cc1nc(NC(=O)NC(C)C)sc1C` the “% Inhibition” value was -4% and the Z score was 0.69.
`O=S(=O)(c1ccc(Cl)cc1)n1cc2c(n1)NCCC2` gave a Z score of 0.11.
In the case of `O=C(Nc1ccnn1Cc1ccc(Cl)cc1)C1CCN(S(=O)(=O)c2ccc(F)c(F)c2)CC1`, the “% Inhibition” value is reported as -7% and the Z score is reported as 0.76.
With `CC(C)Oc1ccc(CNS(=O)(=O)c2ccc3c(c2)OC[C@@H](C(=O)N2CCCCC2)O3)cc1` the “% Inhibition” value was -23% and the Z score was 3.89.
In the case of `CCOC(=O)c1nnsc1N1CCCC1`, the “% Inhibition” value is reported as 10% and the Z score is reported as -1.22.
For `O=C1N(Cc2ccc(F)cn2)C(=O)C23CC(CN12)C3`, the “% Inhibition” value was 3% and the Z score was -0.43.
In the case of `CN(C)S(=O)(=O)c1ccc2c(c1)nnn2CCCC(=O)NC1CCCCCCC1`, the “% Inhibition” value is reported as -15% and the Z score is reported as 2.18.
For `CCC(C)(C)c1ccc(C(=O)N(C)c2nncn2C)cc1`, the “% Inhibition” value was -4% and the Z score was 0.53.
With `CCN1CCC[C@H](CN2CCc3[nH]nc(C(C)C)c3C2)C1` the “% Inhibition” value was -7% and the Z score was 1.14.
`O=S1(=O)CCN(c2ccc3cc[nH]c3n2)CC1` was tested, and the “% Inhibition” value was -4% and the Z score was 0.72.
In the case of `COCC(=O)N1CCC[C@@]2(CCN(Cc3cccc(C(=O)OC)n3)C2)C1`, the “% Inhibition” value is reported as -1% and the Z score is reported as 0.07.
With `Cc1cccc(C(=O)N2CCN3C(=O)CC[C@H]3C2)c1O` the “% Inhibition” value was -12% and the Z score was 1.9.
